# PMC4336329 (PLoS ONE, 2015)
# The whole screen tested about 310,000 compounds, of which about 14,000 (4.5%) showed an effect of 50% or more. Effects have a minus sign here. The list shows a part of the results.
# Target: human ether-à-go-go-related gene (hERG) potassium channel (human, UniProt Q12809)
# Assay: primary screen, population patch clamp on CHO cells stably expressing hERG
# 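Also: peak tail current of the secondary pulse compared with the same well before compound.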
# Sequence of human ether-à-go-go-related gene (hERG) potassium channel (Q12809 whole entry, looked up): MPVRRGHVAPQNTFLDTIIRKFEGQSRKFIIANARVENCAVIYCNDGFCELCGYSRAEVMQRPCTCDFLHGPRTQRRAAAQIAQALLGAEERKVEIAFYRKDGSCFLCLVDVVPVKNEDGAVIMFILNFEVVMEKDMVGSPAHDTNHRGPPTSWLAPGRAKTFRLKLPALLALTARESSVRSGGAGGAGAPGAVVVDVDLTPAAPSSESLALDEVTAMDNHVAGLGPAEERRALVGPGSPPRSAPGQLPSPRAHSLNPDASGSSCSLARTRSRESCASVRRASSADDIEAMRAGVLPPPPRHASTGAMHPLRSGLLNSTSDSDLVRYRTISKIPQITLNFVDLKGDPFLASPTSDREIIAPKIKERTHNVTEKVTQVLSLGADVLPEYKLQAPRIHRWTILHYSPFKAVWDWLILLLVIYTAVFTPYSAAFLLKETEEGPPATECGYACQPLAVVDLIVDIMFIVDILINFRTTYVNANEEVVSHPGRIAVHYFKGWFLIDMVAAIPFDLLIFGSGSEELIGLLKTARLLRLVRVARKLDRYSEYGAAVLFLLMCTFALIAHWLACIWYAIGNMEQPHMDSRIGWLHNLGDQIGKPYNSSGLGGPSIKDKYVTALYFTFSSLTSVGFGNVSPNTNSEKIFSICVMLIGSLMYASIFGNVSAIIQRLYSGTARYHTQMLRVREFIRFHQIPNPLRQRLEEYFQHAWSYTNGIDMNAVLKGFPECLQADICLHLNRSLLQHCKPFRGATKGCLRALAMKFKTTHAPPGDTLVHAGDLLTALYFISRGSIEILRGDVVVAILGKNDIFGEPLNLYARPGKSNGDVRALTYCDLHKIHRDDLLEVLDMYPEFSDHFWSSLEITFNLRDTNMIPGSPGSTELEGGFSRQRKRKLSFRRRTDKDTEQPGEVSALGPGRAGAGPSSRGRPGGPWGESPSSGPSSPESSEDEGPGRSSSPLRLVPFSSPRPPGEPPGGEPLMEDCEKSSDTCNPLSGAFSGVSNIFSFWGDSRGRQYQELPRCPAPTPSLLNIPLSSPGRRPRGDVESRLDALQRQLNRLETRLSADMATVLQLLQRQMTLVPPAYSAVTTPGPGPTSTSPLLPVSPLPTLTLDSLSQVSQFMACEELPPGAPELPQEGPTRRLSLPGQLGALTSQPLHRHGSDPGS
row,SMILES,"hERG current change (%, negative = inhibition) at 10uM"
1,COC(=O)c1sccc1-c1ccc(/C=N/OC(=O)c2cccs2)o1,3.49%
2,Cc1ccc(S(=O)(=O)NC(C)C(=O)NC2CCCCCC2)cc1 (stereo not shown),-5.24%
3,CN(C)/N=C/c1cc([N+](=O)[O-])ccc1O,6.18%
4,COc1ccc(NC(=O)c2cc(OC)c(OC)c(OC)c2)cc1S(=O)(=O)N1CCCCC1,15.5%
5,COc1cccc(NC(=S)N(CCCN2CCOCC2)Cc2cn(C)c3ccccc23)c1,-10.7%
6,O=C(NCCOc1ccccc1)c1ccccc1,12%
7,COc1ccc(N=Cc2c(O)n(C)c(=O)n(C)c2=O)cc1,7.92%
8,CCOC(=O)c1cnc2c(C)cc(Cl)cc2c1NCCCN1CCOCC1,1.44%
9,CS(=O)(=O)N1CCCC(C(=O)NCc2ccco2)C1 (stereo not shown),8.57%
10,COc1cc(C(=O)OCC(=O)c2cc(C)n(C)c2C)cc(NC(=O)c2ccco2)c1OC,7.53%
11,O=C(Nc1ccc2c(c1)OCCO2)c1c(F)c(F)c(F)c(F)c1F,-2.03%
12,CO/N=C/NC(=O)c1c(OC)ccnc1Oc1cccc(C(F)(F)F)c1,-14.1%
13,COc1cccc(/C=N/Nc2ncnc3scc(-c4ccccc4)c23)c1O,-4.18%
14,COc1ccc(N2Cc3ccc(OC)c(OC)c3C2=O)cc1,15.1%
15,O=C(NCc1nnc2n1CCCCC2)c1ccc(Cl)cc1Cl,0.142%
16,COc1ccc(-c2csc(NC(=O)COC(=O)Cc3ccc(Cl)cc3Cl)n2)cc1,-5.5%
17,COc1ccc2[nH]c(=O)c(NC(N)=S)nc2c1,7.2%
18,Cc1cc(C)c2[nH]c(O)c(N=NC3=NC(=O)CS3)c2c1,-19.6%
19,COCCN(C(=O)COC(=O)c1cccnc1SC)c1c(N)n(Cc2ccccc2)c(=O)[nH]c1=O,-2%
20,O=C(O)CCCCCNC(=O)OCC1c2ccccc2-c2ccccc21,7.34%
21,CCN1/C(=C/c2ccc3cc(C)ccc3[n+]2CC)Sc2ccc3sccc3c21.[I-],-44.5%
22,COc1ccc(/C=N/Nc2cc(C)nc3ccc(OC)cc23)c(OC)c1,-50.1%

row,SMILES,"hERG current change (%, negative = inhibition) at 10uM"
1,COc1ccc(CNCC(O)(c2ccc(Cl)cc2)c2ccc(Cl)cc2)cc1,-12%
2,CCN(CC)S(=O)(=O)c1ccc2[nH]cc(C(=O)NC3CC3)c(=O)c2c1,11.3%
3,C=CCOc1ccccc1CNCCc1ccc(S(N)(=O)=O)cc1.Cl,-37.2%
4,CN(C)S(=O)(=O)N(CC(=O)NCCSCc1ccc(Cl)cc1)c1ccccc1,-31.6%
5,COC(=O)C1C2c3ccccc3OC1(C)N=c1s/c(=C/c3cnn(C)c3C)c(=O)n12 (stereo not shown),-3.36%
6,CS(=O)(=O)c1nc(-c2ccc(Br)cc2)cc(-c2ccccc2)c1C#N,20.9%
7,OCCCNC(=S)Nc1ccc(Br)cc1Cl,19.1%
8,CCCN(C(=O)CN1C(=O)NC2(CCCCCC2)C1=O)C1CCS(=O)(=O)C1 (stereo not shown),50.9%
9,O=C(CN1C(=O)c2ccccc2S1(=O)=O)NCc1ccco1,14.1%
10,CNC(=O)/C(C#N)=C/c1ccc(-c2ccccc2[N+](=O)[O-])o1,8.72%
11,CCCOC(=O)c1ccc(Nc2cc(C)nc3ncnn23)cc1,-35.4%
12,O=C(NCc1cccc(Cl)c1)c1ccc2nc(N3CCOCC3)sc2c1,-44.7%
13,Cc1ccccc1NC(=O)CSc1nc2ccccc2c2nc(CCn3cncc3C)nn12,-55.6%
14,Cc1ccc(S(=O)(=O)CCC(=O)NC2CCCCC2)cc1,-0.557%
15,O=C(CSc1nnc(-c2ccc(Cl)cc2)n1Cc1ccco1)c1cccs1,-16.4%
16,CN(C(=O)c1ccccc1Cl)C1CCCCC1,-1.55%
17,Cn1c(-c2ccccc2)cnc1N,7.85%
18,CN1CCc2c(sc(/N=C/c3cc(C(C)(C)C)ccc3O)c2C#N)C1,5.6%
19,COc1ccc(NC(=O)CN2C(=O)S/C(=C/c3cccn3-c3ccc(C(=O)O)cc3)C2=O)cc1,17%
20,CCc1c(C(=O)Nc2ccc(OC)cc2)[nH]c(C)c1C(C)=O,-12.8%
21,COC1CCCN(C(=O)c2cccc(OC3CCN(S(C)(=O)=O)CC3)c2)C1 (stereo not shown),15.1%
22,CC[C@H](CO)Nc1nc(Nc2cccc(Cl)c2)c2ncn(C(C)C)c2n1,-10.7%

row,SMILES,"hERG current change (%, negative = inhibition) at 10uM"
1,COc1ccccc1N(CC(O)CN1CCOCC1)S(=O)(=O)c1ccccc1 (stereo not shown),12.7%
2,COc1ccccc1/C=C1\SC(=O)N(CCC(=O)NCCCn2ccnc2)C1=O,-24.5%
3,COc1ccc(C(=O)NCCn2cc(SCC(=O)NCc3ccco3)c3ccccc32)cc1,-4.63%
4,CCOc1ccc(C(=O)Nc2ccc(S(=O)(=O)N3CCN(C)CC3)cc2)cc1,1.39%
5,Cc1cc(C)cc(OCC(=O)N2CCCCCC2)c1,-2.23%
6,C#CCNC(=O)C1=C[C@@H](c2ccc(C#C)cc2)[C@H](CCCO)[C@@H](OCC)O1,-21.4%
7,COc1cc(OC)c(C2=NOC(C(=O)NCCc3ccccc3)C2)cc1Cl (stereo not shown),-13.1%
8,Cc1ccc(C2C3=C(CC(C)(C)CC3=O)N(CCN3CCOCC3)C3=C2C(=O)CC(C)(C)C3)cc1,-20%
9,CN(CCOc1ccccc1)CC(=O)Nc1ccc(Cl)c(S(=O)(=O)N(C)C)c1.O=C(O)C(=O)O,-29.9%
10,CN(Cc1ccccc1)C(=O)c1[nH]cnc1C(=O)NCc1ccccc1,-5.53%
11,CC(CCN1CCN=C1Nc1ccccc1)c1ccccc1 (stereo not shown),-33.8%
12,Cc1cc(C)c2nc(NNC(=O)c3ccc(S(=O)(=O)N4CCCC(C)C4)cc3)sc2c1 (stereo not shown),6.67%
13,COc1cc(C(=O)NC(=S)Nc2cccc(-c3cc4ccccc4oc3=O)c2)cc(OC)c1OC,14.8%
14,CC(=O)c1cc(F)ccc1OCC(=O)N1CCCc2ccccc21,-4.15%
15,O=C(NCCC1=CCCCC1)c1cc2c(s1)CS(=O)(=O)C2,-28.1%
16,CCS(=O)(=O)c1ccc(OC)c(N=Nc2ccc(O)c3ncccc23)c1,0.639%
17,COc1ccc(C)cc1S(=O)(=O)Nc1ccc(F)cc1,-1.24%
18,CCN(CCCNC(=O)CCCN1C(=O)COc2ccc(C)cc21)c1cccc(C)c1,-30%
19,Cc1ccnc(SCC(=O)N2CCc3ccccc3C2)n1,12.3%
20,COc1ccc(C(=O)NC2c3ccccc3-c3ccccc32)cc1,30.3%
21,Clc1ccc(Cn2ncc3c(N4CCCC4)ncnc32)cc1,-56.7%
22,CC(=O)Oc1ccc2c(c1)Oc1cc(OC(C)=O)ccc1C21OC(=O)c2ccccc21,12.6%

row,SMILES,"hERG current change (%, negative = inhibition) at 10uM"
1,COc1cc(C)c(NC(=O)Cc2ccsc2)cc1OC,29%
2,Cc1ccc(N2CCN(C(=O)CN3C(=O)c4ccccc4C3=O)CC2)cc1,-15.9%
3,COc1cc2[nH]c(C(=O)N3CCN(C)CC3)cc2c(OC)c1OC,17.3%
4,CCN(CC)CCCN=C1N[C@@H](c2ccccc2)C(C(=O)OC)=C(C)N1CC,14.6%
5,O=C(O)c1cccc(S(=O)(=O)N2CCC(Cc3ccccc3)CC2)c1,15.7%
6,C=CCc1c(O)c(CC)cc2c(C)cc(=O)oc12,-0.0305%
7,CCOc1ccc(/C=N/N2C(C)CCCC2C)cc1 (stereo not shown),-4.63%
8,CCOC(=O)N1CCN(C(=O)c2ccc3c(=O)n(Cc4ccc(OC)cc4)c(=S)[nH]c3c2)CC1,-28.9%
9,Cc1ccc2nc(SC(C)C(=O)N3CCCC3)[nH]c2c1 (stereo not shown),17.6%
10,CC(=O)NC(Cc1ccccc1)C(=O)NC1CCN(C(=O)c2cnccn2)CC1 (stereo not shown),-0.606%
11,CN1CCN(CCNC(=O)c2cn(Cc3ccccc3F)nn2)CC1,4.59%
12,CCn1c(SCC(=O)NC2CCCCC2)nnc1-c1ccccn1,-3.17%
13,CCOC(=O)C1=C(CN2CCSCC2)NC(=O)NC1c1ccc2c(c1)OCO2 (stereo not shown),-15.3%
14,COc1ccc(CC2CC(=O)N(c3ccc(C)cc3)C2=O)cc1 (stereo not shown),15.6%
15,COc1cc(OC)c(OC)cc1CN1CCN(Cc2ccc(C(F)(F)F)cc2)CC1,-42.3%
16,CCS(=O)(=O)N1Cc2ccccc2CC1C(=O)Nc1ccccc1OC (stereo not shown),-6.16%
17,COc1ccc(-c2nn(-c3ccccc3)cc2C(=O)NC2CCCCC2C)cc1 (stereo not shown),6.61%
18,Nc1cnc(Br)cc1Br,-10.3%
19,COc1cc(C(C)=O)ccc1OCC(O)CN1CCN(c2ccc(F)cc2)CC1 (stereo not shown),-39%
20,Cc1ccc(SCC(=O)OCC(=O)NCCCc2ccccc2)cc1,9.34%
21,CS(=O)(=O)N(CC(O)CON=C1c2ccccc2-c2ccccc21)c1ccc(F)cc1 (stereo not shown),8.83%
22,CCOC(=O)Cc1csc(NC(=O)c2cnc3sc(C)cn3c2=O)n1,-35%
